Test results as given in patent US11479587B2, “Cationic intrinsically disordered antimicrobial peptides” (priority 2016, dated 2022).
Converted amounts (≈) assume the structure as drawn. “And” between values parts separate entries of the source, which are not always exact repeats. Identical values can stand only once. Like-named read-outs stand apart in the source and are kept apart here. At least one peptide structure holds a part that was inferred or is arguable (an end, a ring closure or a residue). Some entries repeat one wording, which the source may state once for all of them. Residues, ends and D or L forms follow the SMILES beside them. No end group written: not given here.

Assays:
C. albicans ATCC 928 = conditions: standard conditions at pH 7.4; activity at concentration <32 pg/ml
S. aureus ATCC 6538 = assay: CFU-assay, S. aureus-cidal activity; format: cell-based, Staphylococcus aureus
Protocol: Thus, within the present invention, the antimicrobial activity is generally measured in nutrient deficient 10 mM sodium phosphate buffer pH 5.5, containing 0.25% glucose, using the CFU-assay according to Steinberg and Lehrer, 1997 (supra), unless otherwise indicated. The CFU-assay allows determination of the minimal bactericidal concentration (MBC, e.g., MBC90 and MBC100; i.e. the concentration of compound required to achieve a specified reduction in bacterial cell number (microbial death or killing)).
Various peptides corresponding to repeat domains of hornerin (HR 1-11: HRNR 2606-2628; HR 1-17: HRNR 2656-2684 and HR 1-18: HRNR 2656-2677) were tested for P. aeruginosa ATCC 10145-cidal activity in 10 mM Na-phosphate buffer pH 5.5, containing 0.25% glucose by counting the numbers of colonies of surviving bacteria at serial, twofold dilutions from 300 μg/ml down to 19 ng/ml of each peptide (CFU-assay; Steinberg and Lehrer, 1997, Methods Mol. Biol. 78, 169-186).
Staphylococcus aureus is a major skin pathogen, which causes skin infections, in particular in atopic dermatitis. The sensitivity of S. aureus ATCC 6538 towards several CIDAMPs was assessed using the CFU-assay as above (see Example 1). HR 1-18, which lacks S. aureus.-bactericidal activity, is converted in a S. aureus-cidal peptide, when all His are replaced by Arg (HR 1-18 4H-4R; see Table 13 and FIG. 9). […] HR 1-18 4H-4R is rich in Ser and Arg and contains a single Leu residue. When this single Leu was replaced by Gly in S. aureus-cidal HR 1-18 4H-4R (forming HR 1-18 4H-4R/L-G), S. aureus-cidal activity was abolished at both pH 7.0 and pH 5.5 (see Table 13 and FIG. 9).

[1] = test system: Streptococcus pneumoniae ATCC 33400; assay: CFU-assay, antimicrobial activity spectrum; format: cell-based
[2] = test system: Prevotella oralis ATCC 33321; assay: CFU-assay, antimicrobial activity spectrum; format: cell-based
[3] = test system: Clostridium perfringens ATCC 13124; format: cell-based
P. aeruginosa ATCC 10145 = assay: CFU-assay, P. aeruginosa-cidal activity; format: cell-based, Pseudomonas aeruginosa; conditions: pH 5.5, 0.25% glucose

## GRRGGRGGRGRGR [GR13]
C. albicans ATCC 928
  Antifungal activity, C. albcans ATCC90028: I (I-inactive)

## CCCCCCCCCCCCCCCC(=O)NCC(=O)N[C@@H](CCCCN)C(=O)N[C@@H](CCCCN)C(=O)NCC(=O)NCC(=O)N[C@@H](CCCCN)C(=O)NCC(=O)NCC(=O)N[C@@H](CCCCN)C(=O)NCC(=O)N[C@@H](CCCCN)C(=O)NCC(=O)N[C@@H](CCCCN)C(=O)O [Pal-K-GR13] (HELM PEPTIDE1{[CCCCCCCCCCCCCCCC(=O)[*:2]].G.K.K.G.G.K.G.G.K.G.K.G.K}$$$$V2.0)
C. albicans ATCC 928
  Antifungal activity, C. albcans ATCC90028: I (I-inactive)

## CCCCCCCCCCCCCCCC(=O)NCC(=O)N[C@@H](CCCNC(=N)N)C(=O)NCC(=O)N[C@@H](CCCNC(=N)N)C(=O)O [Pal-GR4, Pal-GRGR] (HELM PEPTIDE1{[CCCCCCCCCCCCCCCC(=O)[*:2]].G.R.G.R}$$$$V2.0)
C. albicans ATCC 928
  Antifungal activity, C. albcans ATCC90028: A (A-active)

## CCCCCCCCCCCCCCCC(=O)NCC(=O)N[C@@H](CCCNC(=N)N)C(=O)N[C@@H](Cc1c[nH]cn1)C(=O)NCC(=O)N[C@@H](CO)C(=O)NCC(=O)N[C@@H](CC(C)C)C(=O)NCC(=O)N[C@@H](Cc1c[nH]cn1)C(=O)N[C@@H](CO)C(=O)N[C@@H](CO)C(=O)N[C@@H](CO)C(=O)N[C@@H](Cc1c[nH]cn1)C(=O)NCC(=O)N[C@@H](CCC(N)=O)C(=O)N[C@@H](Cc1c[nH]cn1)C(=O)NCC(=O)N[C@@H](CO)C(=O)NCC(=O)N[C@@H](CO)C(=O)NCC(=O)N[C@@H](CCCNC(=N)N)C(=O)O [Pal-HR 1-18] (HELM PEPTIDE1{[CCCCCCCCCCCCCCCC(=O)[*:2]].G.R.H.G.S.G.L.G.H.S.S.S.H.G.Q.H.G.S.G.S.G.R}$$$$V2.0)
S. aureus ATCC 6538; pH 5.5, 0.25% glucose
  MBC100: 37.5 µg/mL (≈ 16 µM)
[1]; pH 7.3, 1% TSB
  MBC100: 37.5 µg/mL (≈ 16 µM)
[2]; pH 6.5, 0.25% glucose
  MBC90: 37.5 µg/mL (≈ 16 µM)
[2]; pH 7.3, 1% TSB
  MBC90: 18.75 µg/mL (≈ 8.02 µM)
[3]; pH 5.5
  MBC90: 37.5 µg/mL (≈ 16 µM)
  MBC100: 75 µg/mL (≈ 32.1 µM)
[3]; pH 7.3
  MBC100: 37.5 µg/mL and 18.75 µg/mL
  MDC90: 4.6 µM

## SHHRHFRSHQCRR [LCE3C55-67]
C. albicans ATCC 928
  Antifungal activity, C. albcans ATCC90028: I (I-inactive)

## CCCCCCCCCCCCCCCC(=O)N[C@@H](CCCNC(=N)N)C(=O)NCC(=O)N[C@@H](CO)C(=O)N[C@@H](CCCNC(=N)N)C(=O)N[C@@H](CO)C(=O)NCC(=O)N[C@@H](CCC(N)=O)C(=O)N[C@@H](CO)C(=O)N[C@@H](CO)C(=O)N[C@@H](CCCNC(=N)N)C(=O)NCC(=O)N[C@@H](CCC(=O)O)C(=O)N[C@@H](CCCNC(=N)N)C(=O)N[C@@H](CCCNC(=N)N)C(=O)NCC(=O)N[C@@H](CO)C(=O)N[C@@H](CO)C(=O)N[C@@H](CO)C(=O)NCC(=O)N[C@@H](CO)C(=O)N[C@@H](CO)C(=O)N[C@@H](CO)C(=O)N[C@@H](CCCNC(=N)N)C(=O)O [Pal-HR 1-11 3H3R] (HELM PEPTIDE1{[CCCCCCCCCCCCCCCC(=O)[*:2]].R.G.S.R.S.G.Q.S.S.R.G.E.R.R.G.S.S.S.G.S.S.S.R}$$$$V2.0)
P. aeruginosa ATCC 10145
  MBC90: 0.038 µg/mL (≈ 0.0146 µM)
  MBC100: 0.15 µg/mL (≈ 0.0575 µM)
S. aureus ATCC 6538; pH 5.5, 0.25% glucose
  MBC90: 0.59 µg/mL (≈ 0.226 µM)
  MBC100: 300 µg/mL (≈ 115 µM)

## CCCCCCCCCCCCCCCC(=O)NCC(=O)N[C@@H](CCCNC(=N)N)C(=O)N[C@@H](CCCNC(=N)N)C(=O)NCC(=O)N[C@@H](CO)C(=O)NCC(=O)N[C@@H](CC(C)C)C(=O)NCC(=O)N[C@@H](CCCNC(=N)N)C(=O)N[C@@H](CO)C(=O)N[C@@H](CO)C(=O)N[C@@H](CO)C(=O)N[C@@H](CCCNC(=N)N)C(=O)NCC(=O)N[C@@H](CCC(N)=O)C(=O)N[C@@H](CCCNC(=N)N)C(=O)NCC(=O)N[C@@H](CO)C(=O)NCC(=O)N[C@@H](CO)C(=O)NCC(=O)N[C@@H](CCCNC(=N)N)C(=O)O [Pal-HR 1-18 HR] (HELM PEPTIDE1{[CCCCCCCCCCCCCCCC(=O)[*:2]].G.R.R.G.S.G.L.G.R.S.S.S.R.G.Q.R.G.S.G.S.G.R}$$$$V2.0)
S. aureus ATCC 6538; pH 7.3, 1% TSB, listed as palmitoyl-HR 1-18 HR
  MBC100: 9.375 µg/mL (≈ 3.88 µM)
[1]; pH 7.3, 0.25% glucose
  MBC90: 9.375 µg/mL (≈ 3.88 µM)
  MBC100: 9.375 µg/mL (≈ 3.88 µM)
[3]; pH 7.3
  MBC90: 4.7 µg/mL (≈ 1.95 µM)
  MBC100: 9.375 µg/mL (≈ 3.88 µM)
C. albicans ATCC 928
  Antifungal activity, C. albcans ATCC90028: A (A-active)
